Assay results taken from ChEMBL document CHEMBL1201862, “PubChem BioAssay data set” (2004).

These molecules were tested on NCI-H322M (assay: NCI anticancer screen, dose series, 48 h).
For `CC1=C[C@H]2c3c([nH]c4ccccc34)C(c3c[nH]c4ccccc34)[C@H]2CC1` (some centres not stated), the GI50 was inactive: 10.8 µM. In the case of `CCOn1cc(C[C@@]2(O)C(=O)OC3[C@@H](O)CO[C@@]32O)c2ccccc21` (some centres not stated), the GI50 was inactive: > 100 µM. With `CCc1nc(N)nc(N)c1-c1ccc([N+](=O)[O-])c(NCc2ccccc2)c1` the GI50 was inactive: 16 µM. In the case of `CN(C)c1ccc(/C=C(\NC(=O)c2ccccc2)C2=NC(CCC(=O)O)C(=O)O2)cc1` (configuration not stated), the GI50 was inactive: > 50 µM. With `CCOc1ccc(NC(=O)C(=O)C2C(=O)Nc3ccccc3[S+]2[O-])cc1` (configuration not stated) the GI50 was inactive: > 100 µM. In the case of `COC12OCCN(C)C1=CC(=O)C1N=NCC12` (configuration not stated), the GI50 was inactive: > 100 µM. `COC(=O)/C=C\C(C#N)(C#N)/N=C/c1ccc(Br)s1` was tested, and the GI50 was inactive: 18.2 µM. `CSC1NC(c2ccc(Cl)cc2)=C(C#N)C(=O)N1C1OCC(OC(C)=O)C(OC(C)=O)C1OC(C)=O` (configuration not stated) was tested, and the GI50 was inactive: > 100 µM. In the case of `O=C(NCCCCCCNC(=O)c1cccc2ccccc12)c1cccc2ccccc12`, the GI50 was inactive: 49 µM. In the case of `C=C1CC(C)(COc2ccc3c(C)c(C)c(=O)oc3c2C)OC1=O` (configuration not stated), the GI50 was inactive: 10.8 µM. For `COc1cccc2c1C(=O)c1c(O)c3c(c(O)c1C2=O)CC(O)(C(C)=O)CC3O` (configuration not stated), the GI50 was inactive: 5.83 µM. With `CNc1cc(N)ccc1C(=O)N1CCC[C@H]1CO` the GI50 was inactive: > 100 µM. `CCSC1(SCC)CCN(/C=N/C(C)(C)C)C1` was tested, and the GI50 was inactive: > 100 µM. In the case of `C#C[C@]1(O)CC[C@H]2[C@@H]3CCC4=C/C(=N/CCOC(=O)c5cccc6cc7ccccc7nc56)CC[C@@H]4[C@H]3CC[C@@]21C`, the GI50 was inactive: 26.2 µM. For `C[C@]12CC(C#N)C(=O)C(O)=C1CC[C@@H]1C2CC[C@@]2(C)C1CC[C@@H]2O` (some centres not stated), the GI50 was inactive: 57.8 µM. In the case of `CN(C)/C(=N\C#N)N(Cc1ccccc1)Cc1ccccc1`, the GI50 was inactive: > 100 µM. With `CC1=CC2CC(C)C1(C)CCc1ccoc12` (configuration not stated) the GI50 was inactive: > 100 µM. For `COc1cc(CNC(=O)CCCCCCCCCCSSCCCCCCCCCCC(=O)NCc2ccc(O)c(OC)c2)ccc1O`, the GI50 was inactive: > 10 µM. With `FC(F)=C(c1ccc(-c2ccc(Cl)cc2)cc1)C(F)(F)F` the GI50 was inactive: 17.9 µM. In the case of `O=[N+]([O-])c1ccc(-c2ccc(-c3csc(Nc4ccccn4)n3)o2)cc1`, the GI50 was inactive: > 100 µM. `COc1cc(/C=C2\C(=O)N(c3ccc(NC(C)=O)cc3)C(c3ccccc3)S2(=O)=O)cc(OC)c1OC` (configuration not stated) was tested, and the GI50 was inactive: > 100 µM. For `O=C1NCC2(CCNCC2)N1c1ccccc1`, the GI50 was inactive: > 100 µM. With `NS(=O)(=O)c1nnc(/N=C(/CCC(=O)O)C(=O)O)s1` the GI50 was inactive: > 100 µM. With `CC(C)c1cccc(C(C)C)c1NC(=O)CCC(=O)NN` the GI50 was inactive: > 100 µM. With `CC(C)(C)N1NC1C1NN1C(C)(C)C` (configuration not stated) the GI50 was inactive: > 100 µM. `O=C1[C@@H]2C(c3ccncc3)=NO[C@@H]2C(=O)N1c1ccc(Cc2ccc(N3C(=O)[C@H]4C(c5ccncc5)=NO[C@H]4C3=O)cc2)cc1` was tested, and the GI50 was inactive: > 100 µM. In the case of `C#C[C@]1(O)[C@@H](CO)O[C@@H](n2ccc(N)nc2=O)[C@@H]1O`, the GI50 was active: 0.0286 µM. `NCC(O)CSP(=O)(O)O` (configuration not stated) was tested, and the GI50 was inactive: > 100 µM. In the case of `O=C1/C(=C/c2ccccc2)CCC/C1=C\c1ccccc1` [2,6-DIBENZYLIDENECYCLOHEXANONE], the GI50 was inactive: 17.8 µM. In the case of `O=c1c2ccccc2nc(-c2ccccc2)n1NC(=S)Nc1ccccc1`, the GI50 was inactive: > 100 µM. With `CC(O)CC(=O)CO[C@H]1[C@H](O)[C@@H](O)[C@@H](O)[C@@H]2NC(=O)c3c(cc4c(c3O)OCO4)[C@H]21` (some centres not stated) the GI50 was active: 0.0589 µM. For `Cc1cc(=O)oc2c(C3=NN(C=O)C(c4ccccc4)C3)c(O)ccc12` (configuration not stated), the GI50 was inactive: > 77.4 µM. With `Cc1ccc(SSc2ccc(C)cc2C(=O)O)c(C(=O)O)c1` the GI50 was inactive: > 100 µM. `C/C(=N\NC(=S)N1CCOCC1)c1nc2cccnc2[nH]1` was tested, and the GI50 was inactive: 36.8 µM. For `COC(=O)C1(C(=O)OC)N=C(C)OC1/C=C/c1ccccc1` (configuration not stated), the GI50 was inactive: > 100 µM. For `CCC1CN2CCc3cc(OC)c(OC)cc3C2CC1CC1c2cc(OC)c(OC)cc2CCN1C(=O)CNC(=O)OC(C)(C)C` (configuration not stated), the GI50 was inactive: 4.46 µM. In the case of `C[C@]12C=CC(=O)C=C1[C@@H](F)C[C@H]1[C@@H]3CC[C@](O)(C(=O)CO)[C@@]3(C)C[C@H](O)[C@@]12F`, the GI50 was inactive: > 100 µM. With `CCNc1cc2c(cc1O)CC[C@@H]1[C@@H]2CC[C@]2(C)[C@@H](O)CC[C@@H]12` the GI50 was active: 0.644 µM. For `C[C@]12CC[C@H](O)CC1=CC[C@@H]1C2CC[C@]2(C)c3nn(-c4ccc(F)cc4)nc3CC12` (some centres not stated), the GI50 was inactive: 47 µM. `CC(C)(C)N1CSC(=S)N(Cc2ccco2)C1` was tested, and the GI50 was inactive: 13.2 µM. For `C#CC1(O)CCC2C3CCc4cc(Oc5nc(F)nc(-c6c7ccccc7c7sc8ccccc8n67)n5)ccc4C3CC[C@@]21C` (some centres not stated), the GI50 was inactive: > 100 µM. For `CCN(CC)CC[S+]([O-])c1c2cc(OC)ccc2nc2ccc(OC)cc12` (configuration not stated), the GI50 was inactive: 16.3 µM. `Cc1cccc(-c2cc(O)c3cc(C)cnc3n2)c1` was tested, and the GI50 was active: 0.405 µM. For `O=C(/C=C/c1ccc(O)c(O)c1)OCc1ccccc1` [BENZYL CAFFEATE], the GI50 was inactive: 30.5 µM. For `CCc1nc2cc(F)ccc2[nH]c1=O`, the GI50 was inactive: > 100 µM. For `O=C1c2ccccc2-c2c1c1ccccc1c(=O)n2-c1cccnc1`, the GI50 was inactive: > 76.7 µM. With `Cc1cc2c(SCc3ccccc3Cl)nc(N)nc2nc1C` the GI50 was inactive: > 100 µM. With `Cc1ccc2c(c1)SC(c1cc3c(cc1Br)OCO3)S2` (configuration not stated) the GI50 was inactive: > 31.6 µM. With `Brc1ccc(-c2cn3ccncc3n2)cc1` the GI50 was inactive: > 100 µM. In the case of `O=c1nc2n(c3nsnc13)CCO2`, the GI50 was inactive: > 100 µM. With `CCOC(=O)C(CCCNC(=O)OC(C)(C)C)N(Cc1ccc(OC)cc1OC)C(=O)CC(=O)CP(=O)(OCC)OCC` (configuration not stated) the GI50 was inactive: > 100 µM. For `CC(C)=CCc1c(O)c(CC=C(C)C)c2oc3c(c(=O)c2c1O)C(C=C(C)C)Oc1cc(O)ccc1-3` (configuration not stated), the GI50 was inactive: 12.7 µM. With `O=c1[nH]cc(OCC(F)(F)F)c(=O)[nH]1` the GI50 was inactive: > 100 µM. `CCCc1c(Cl)nc(Cl)nc1Cl` was tested, and the GI50 was inactive: 6.98 µM. With `CC1(C)C(=O)C=CC2(C)C1CC(O)C1(C)C2CCC2(C)C(c3ccoc3)OC(=O)C3OC321` (configuration not stated) the GI50 was inactive: 30.6 µM. In the case of `CN(C)[C@@H]1C(O)=C(C(N)=O)C(=O)[C@@]2(O)C(O)=C3C(=O)c4c(O)cccc4C[C@H]3C[C@@H]12`, the GI50 was inactive: 2.44 µM. For `NC(=O)N/C=C1\C(=O)Oc2ccccc2C1=O`, the GI50 was inactive: 75.3 µM. With `COC1(C2c3ccccc3CCN2C(=O)OC(C)(C)C)C(=O)C(c2ccccc2)=C1N(C)C` (configuration not stated) the GI50 was inactive: 31.8 µM. For `Cc1nc(O)nc2nc3ccc(Cl)cc3c(NC(C)(CO)CO)c12`, the GI50 was inactive: > 65.6 µM. With `Cc1ccc(CNc2ccc(Br)cc2)cc1` the GI50 was inactive: 52.1 µM. `CN1C(=O)N/C(=C\c2ccc(S(=O)(=O)NN)cc2)C1=O` was tested, and the GI50 was inactive: > 100 µM. For `COC(=O)c1c2n(c3ccccc13)C[C@H]1OC(C)(C)O[C@@H]21`, the GI50 was inactive: > 100 µM. With `Cn1c2cn[nH]c(=O)c2c2ccc3ccccc3c21` the GI50 was inactive: 45.4 µM. In the case of `O=C(N/C(=C\c1ccc2c(c1)OCO2)c1nc2ccccc2[nH]1)c1ccccc1`, the GI50 was inactive: 39.4 µM. `COc1ccccc1-c1cc(=O)c2ccccc2n1C1CC1` was tested, and the GI50 was inactive: 1.45 µM. For `COC(=O)C(CCSc1ccccc1)C(=O)OC`, the GI50 was inactive: > 100 µM. In the case of `CC(C)(C)c1ccc(-n2c3nc(=O)n(-c4ccccc4C(F)(F)F)c(=O)c-3cc3ccccc32)cc1`, the GI50 was inactive: 17.7 µM. `O=C(/C=C/c1ccccc1)N1CCCCC1` was tested, and the GI50 was inactive: > 100 µM. With `COc1ccc(/C(C)=N/NC(=S)N(C)C)c(O)c1` the GI50 was inactive: 3.19 µM. In the case of `CC(C)(C)c1ccccc1NS(=O)(=O)c1ccccc1`, the GI50 was inactive: > 100 µM. In the case of `COC(=O)[C@@H]1CCCCC[C@H]2C(CO)=C(C)C(=O)C12` (some centres not stated), the GI50 was inactive: > 100 µM. For `N#CCCC(C=O)(CCC#N)CCC#N`, the GI50 was inactive: > 100 µM. `O=C1c2ccccc2NC2C(O)c3ccccc3N12` (configuration not stated) was tested, and the GI50 was inactive: 47.9 µM. `Sc1nn2c(COc3cc(Cl)c(OCc4nnc5sc(S)nn45)cc3Cl)nnc2s1` was tested, and the GI50 was inactive: > 100 µM. With `Nc1ncnc2c1ncn2C1OC(CO)C(O)C1N` (configuration not stated) the GI50 was inactive: > 100 µM. With `O=C1CC2=CCCC2O1` (configuration not stated) the GI50 was inactive: > 100 µM. With `CC(Cc1ccc(O)cc1)NCC(O)c1ccc(O)c(O)c1` (configuration not stated) the GI50 was inactive: > 100 µM. In the case of `CN(C)CCCNc1ncnc2[nH]cnc12`, the GI50 was inactive: > 100 µM. With `FC(F)(F)C12C34C=CC5(CCC6(C=CC1(CC3)O6)C52C(F)(F)F)O4` (configuration not stated) the GI50 was inactive: > 100 µM. `O=C(O)COc1c(Cl)cc(Cl)c(C(c2c(Cl)cc(Cl)c(OCC(=O)O)c2Cl)C(Cl)(Cl)Cl)c1Cl` was tested, and the GI50 was inactive: 22.6 µM. In the case of `CCOC(=O)c1nc2ccccc2nc1Nc1ccc(OC)c(OC)c1`, the GI50 was inactive: > 100 µM. For `O=c1cc(N2CCCC2)[nH]c(=O)n1-c1ccc(F)cc1`, the GI50 was inactive: > 100 µM. In the case of `C/C(=N/NC(=S)Nc1ccccc1Cl)c1cccc(/C(C)=N\NC(=S)Nc2ccccc2Cl)n1`, the GI50 was inactive: 4.19 µM. `CC1=NN(c2cccc(Cl)c2)C2(SCC(=O)N2c2nc3ccccc3s2)/C1=C\c1ccccc1O` (configuration not stated) was tested, and the GI50 was inactive: 25.3 µM. For `CC(C)(C)[Si](C)(C)OCC1OC(n2cc(F)c(=O)[nH]c2=O)CC1O[Si](C)(C)C(C)(C)C` (configuration not stated), the GI50 was inactive: 11.9 µM. For `N=C(N)NC(CC(=O)O)c1ccccc1` (configuration not stated), the GI50 was inactive: > 100 µM. For `Cn1c(=O)[nH]c2c(c1=O)C(=O)CN2`, the GI50 was inactive: > 100 µM. For `CCO/C=N\C1=C(C#N)SC2=N/C(=C\c3ccc(OC)cc3)C(=O)N21`, the GI50 was inactive: > 100 µM. With `Cc1ccc2nc(-c3ccc(C(C)(C)C)cc3)oc(=O)c2c1` the GI50 was inactive: 45.4 µM. In the case of `CSc1nc2c(nc(N)n2C2OCC(O)C(O)C2O)c(=O)n1C` (configuration not stated), the GI50 was inactive: > 100 µM. For `Cc1cccc2[nH]c3c(c(O)cc4[nH]c5cccc(C)c5c(=O)c43)c(=O)c12`, the GI50 was inactive: > 10 µM. In the case of `O=C1CC(=O)c2c(O)cc(O)c(c2O)-c2c(ccc(O)c2O)C2=CC(=O)c3c(O)cc(O)c(c3O2)-c2c1ccc(O)c2O.O=C1CC2(O)Oc3c1c(O)cc(O)c3-c1c(ccc(O)c1O)-c1cc(=O)c3c(O)cc(O)c(c3o1)-c1c2ccc(O)c1O`, the GI50 was inactive: > 50 µM.

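48-hour exposure; five concentrations; linearly interpolated endpoints. Here, GI50 denotes the concentration required for 50% inhibition of growth.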 Active and inactive are the calls of the source. Cut-off read from the data, not from the text of the source: active = GI50 up to about 1.1 µM and inactive = higher.
